Reference: article PMC4676731
Results are given in words; binding and its absence hold for the method and conditions named. In cells and extracts the contact can be indirect. Some binding calls cover weakened binding; strength is not graded here.

T1: Chk1 (human (endogenous in HeLa)) (UniProt O14757)
T1 sequence: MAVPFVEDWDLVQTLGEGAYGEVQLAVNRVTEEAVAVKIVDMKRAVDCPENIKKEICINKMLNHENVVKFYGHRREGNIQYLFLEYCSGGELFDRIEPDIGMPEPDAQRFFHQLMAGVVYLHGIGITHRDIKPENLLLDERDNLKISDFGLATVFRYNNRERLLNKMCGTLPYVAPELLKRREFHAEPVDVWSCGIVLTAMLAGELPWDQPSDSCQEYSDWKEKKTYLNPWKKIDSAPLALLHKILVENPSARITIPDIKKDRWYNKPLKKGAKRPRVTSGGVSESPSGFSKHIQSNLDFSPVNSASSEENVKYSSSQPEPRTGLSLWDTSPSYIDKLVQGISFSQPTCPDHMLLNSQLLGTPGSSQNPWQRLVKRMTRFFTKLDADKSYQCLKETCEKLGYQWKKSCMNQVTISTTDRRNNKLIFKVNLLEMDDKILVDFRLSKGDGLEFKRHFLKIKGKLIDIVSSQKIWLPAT

T2: Rad9A (human (endogenous in HeLa)) (UniProt Q99638)
T2 sequence: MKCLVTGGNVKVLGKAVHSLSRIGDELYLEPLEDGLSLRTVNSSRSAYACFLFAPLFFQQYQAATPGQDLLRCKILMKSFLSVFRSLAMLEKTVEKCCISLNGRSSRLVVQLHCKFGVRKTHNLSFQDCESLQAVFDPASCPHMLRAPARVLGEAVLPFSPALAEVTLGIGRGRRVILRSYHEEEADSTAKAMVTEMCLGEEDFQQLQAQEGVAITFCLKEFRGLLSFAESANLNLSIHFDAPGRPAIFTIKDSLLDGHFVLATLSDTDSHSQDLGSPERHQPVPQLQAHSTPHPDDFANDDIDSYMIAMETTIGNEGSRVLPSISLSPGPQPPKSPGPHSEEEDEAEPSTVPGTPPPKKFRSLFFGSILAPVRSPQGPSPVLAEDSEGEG


Columns and labels:
[1] = target: T1, Chk1 (human (endogenous in HeLa)); assay: co-IP; Non-denaturing IP with rabbit polyclonal anti-Chk1 (sc-7898) and protein A sepharose from NETN lysates of HeLa Tet-Off cells synchronized in S-phase; immunoblot for Rad9A
[2] = target: T2, Rad9A (human (endogenous in HeLa)); assay: condition: only denaturing conditions (1% SDS, boiling for 10 min at 95°C); co-IP; Denaturing IP (IPD) with anti-Rad9A: asynchronous HeLa Tet-Off cells lysed in 1% SDS buffer, boiled 10 min at 95°C, sonicated, diluted with 9 vol of modified RIPA buffer before IP; immunoblot
[3] = target: T2, Rad9A (human (endogenous in HeLa)); assay: co-IP; Non-denaturing IP (IPND) with affinity purified chicken polyclonal anti-Rad9A and PrecipHen beads from NETN lysates (120 mM NaCl, 20 mM Tris-HCl pH 8.0, 0.5% NP40, DNase I treated), 4°C; HeLa Tet-Off cells asynchronous (Fig 3A) or synchronized in S-phase, exposed to 100 μg/ml BLEO for 20 h, or 10 Gy IR and harvested 20 h later (Fig 6B); immunoblot

binding [1] | binding [2] | binding [3] | Binder
binds |  |  | Rad9A (protein, UniProt Q99638 1-391) MKCLVTGGNVKVLGKAVHSLSRIGDELYLEPLEDGLSLRTVNSSRSAYACFLFAPLFFQQYQAATPGQDLLRCKILMKSFLSVFRSLAMLEKTVEKCCISLNGRSSRLVVQLHCKFGVRKTHNLSFQDCESLQAVFDPASCPHMLRAPARVLGEAVLPFSPALAEVTLGIGRGRRVILRSYHEEEADSTAKAMVTEMCLGEEDFQQLQAQEGVAITFCLKEFRGLLSFAESANLNLSIHFDAPGRPAIFTIKDSLLDGHFVLATLSDTDSHSQDLGSPERHQPVPQLQAHSTPHPDDFANDDIDSYMIAMETTIGNEGSRVLPSISLSPGPQPPKSPGPHSEEEDEAEPSTVPGTPPPKKFRSLFFGSILAPVRSPQGPSPVLAEDSEGEG
 | no binding | binds | Rad1 (protein, UniProt O60671 1-282) MPLLTQQIQDEDDQYSLVASLDNVRNLSTILKAIHFREHATCFATKNGIKVTVENAKCVQANAFIQAGIFQEFKVQEESVTFRINLTVLLDCLSIFGSSPMPGTLTALRMCYQGYGYPLMLFLEEGGVVTVCKINTQEPEETLDFDFCSTNVINKIILQSEGLREAFSELDMTSEVLQITMSPDKPYFRLSTFGNAGSSHLDYPKDSDLMEAFHCNQTQVNRYKISLLKPSTKALVLSCKVSIRTDNRGFLSLQYMIRNEDGQICFVEYYCCPDEEVPESES
 | no binding | binds | Hus1 (protein, UniProt O60921 1-280) MKFRAKIVDGACLNHFTRISNMIAKLAKTCTLRISPDKLNFILCDKLANGGVSMWCELEQENFFNEFQMEGVSAENNEIYLELTSENLSRALKTAQNARALKIKLTNKHFPCLTVSVELLSMSSSSRIVTHDIPIKVIPRKLWKDLQEPVVPDPDVSIYLPVLKTMKSVVEKMKNISNHLVIEANLDGELNLKIETELVCVTTHFKDLGNPPLASESTHEDRNVEHMAEVHIDIRKLLQFLAGQQVNPTKALCNIVNNKMVHFDLLHEDVSLQYFIPALS
